Source: PubChem BioAssay AID1645882 (National Center for Advancing Translational Sciences (NCATS), 2021)
Screen size: about 16,000 compounds; about 120 (0.75%) were called active. Not shown: some 4% with an inconclusive outcome. Calls come from the whole dose curve; as a rule, active = well fitted inhibition curve with a large enough effect; inconclusive = small, poorly fitted or top-dose-only effect; inactive = no such curve, though single readings can be large or run the other way. This is one part of the list.

biological target: Rap guanine nucleotide exchange factor 3 (Homo sapiens) (UniProt O95398); assay: Validation qHTS for antagonist of cAMP-regulated guanine nucleotide exchange factor 3 (EPAC1); conditions: EPAC1 Rap1B-BODIPY-GDP exchange, fluorescence; series mostly up to 150 µM; activity change, negative = inhibition: at the top concentration;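 note: plate controls were DMSO for no effect and ATA control for full effect; nearly all actives have a fitted effect of over 75% in size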
UniProt O95398, sequence (O95398 whole entry, looked up): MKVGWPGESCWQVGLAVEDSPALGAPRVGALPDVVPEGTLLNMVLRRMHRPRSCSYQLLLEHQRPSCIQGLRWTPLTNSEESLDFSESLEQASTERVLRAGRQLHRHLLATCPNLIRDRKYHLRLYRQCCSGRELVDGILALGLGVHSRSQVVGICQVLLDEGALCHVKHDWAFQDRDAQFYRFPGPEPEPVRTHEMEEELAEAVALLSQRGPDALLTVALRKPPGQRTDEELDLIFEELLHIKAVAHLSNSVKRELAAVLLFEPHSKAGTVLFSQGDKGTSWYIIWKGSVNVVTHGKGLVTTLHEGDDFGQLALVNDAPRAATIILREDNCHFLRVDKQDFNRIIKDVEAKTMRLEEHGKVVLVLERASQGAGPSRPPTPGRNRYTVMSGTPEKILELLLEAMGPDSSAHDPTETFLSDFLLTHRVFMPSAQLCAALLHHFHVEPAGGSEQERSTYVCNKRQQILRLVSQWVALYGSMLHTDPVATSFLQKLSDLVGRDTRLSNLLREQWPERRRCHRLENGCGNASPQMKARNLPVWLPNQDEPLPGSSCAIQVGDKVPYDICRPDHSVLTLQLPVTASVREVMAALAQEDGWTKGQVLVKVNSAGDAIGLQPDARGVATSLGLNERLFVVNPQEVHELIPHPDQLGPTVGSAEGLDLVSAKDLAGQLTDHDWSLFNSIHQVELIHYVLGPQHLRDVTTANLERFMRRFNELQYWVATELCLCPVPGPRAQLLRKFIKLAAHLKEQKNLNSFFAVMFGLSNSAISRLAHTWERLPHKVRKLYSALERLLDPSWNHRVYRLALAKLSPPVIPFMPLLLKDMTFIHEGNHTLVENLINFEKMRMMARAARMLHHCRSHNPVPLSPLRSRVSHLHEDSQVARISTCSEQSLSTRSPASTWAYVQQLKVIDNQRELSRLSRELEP
Method in brief: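 EPAC1 (100 nM) mixed with 250 nM RAP1B-BODIPY-GDP and 50 uM GDP; compounds in concentration series, 5 min at room temperature. Fluorescence (ex 480/em 540 nm) read every 5 min for 30 min; normalized to ATA control and DMSO.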

Activity change, negative = inhibition, inactive:
C=C[C@]1(C)C[C@@H](OC(=O)CO)[C@]2(C)[C@H](C)CC[C@]3(CCC(=O)[C@H]32)[C@@H](C)[C@@H]1O 4.89%
Cc1noc(C)c1C(=O)N1CCC[C@@]2(CCN(Cc3ccc(C#N)cc3)C2)C1 -3.25%
Cc1cccc(C)c1NC(=O)C[N+](C)(C)C 3.89%
O=C(OCCN1CCCCC1)c1c[nH]c2ccccc12
COc1ccccc1-c1ccc(C(=O)N(C)C(C)c2ccon2)c(N2CCN(c3ccccc3F)CC2)n1 (configuration not stated) 8.5%
C=C1C(=O)OC2CC1C(OC(C)=O)CC(C)=CCCC(C)=CCC[C@@]2(C)O (some centres not stated) 5.65%
Cc1ccc(S(=O)(=O)/C=C/C#N)cc1
O=C(/C=C/c1ccc(O)cc1)c1c(O)cc(O)cc1O 11.4%
CCCn1c(=O)c2[nH]c(-c3ccc(OCC(=O)NCCN)cc3)nc2n(CCC)c1=O -3.35% [at 75.8 µM]
CCn1c(-c2ccccc2F)nc2cc(C(=O)N3CCNC(=O)C3CC(=O)OC)cc(NC(C)=O)c21 (configuration not stated) 1.61%
C=C1C(=O)OC2C1CC/C(C)=C/CCC1(C)OC21 (configuration not stated) -15.9%
O=C1c2ccccc2CCC1CNCCc1ccc(O)cc1 (configuration not stated) 24.3%
COC(=O)C1OC(=O)C2OC23[C@]2(C)C(O)CC4C(C)(C)C(OC(C)=O)CC(OC(C)=O)[C@@]4(C)C2CC[C@@]13C (some centres not stated)
Cc1cnc(CNc2cc(-c3cccnc3)ncn2)cn1 -14%
COc1cccc(/C=C/C(=O)O)c1C(C)C 9.75%
COc1ccccc1CN1CCCC2(CCN(C(=O)c3csnn3)CC2)C1 8.84%
O=c1c(-c2ccc(F)cc2)nc2cnc(N3CCNCC3)nc2n1C1CC1 14.2%
O=c1c(-c2ccccc2)c1-c1ccccc1 -28.7%
O=c1oc2ccccc2cc1O 12.3%
CN(C)CCCN1c2ccccc2C(C)(C)c2ccccc21 13.5%
CN(C)c1ncnc2ccc(-c3cccc(NS(C)(=O)=O)c3)cc12 9.36%
COc1ccc(-c2nc3cnc(Nc4ccccc4)nc3n(C[C@H]3CCCO3)c2=O)cc1 38.8%
C=C1CCC(=O)C(C)CCC2C1CC2(C)C (configuration not stated) -5.43%
N=C(N)c1ccc(OCCCCCOc2ccc(C(=N)N)cc2)cc1 (tested in a mixture with another compound) 6.72% [at 75.8 µM]
OCC(O)C(O)C(O)CO (configuration not stated) 11.7%
Cc1cccc2cc(CN(C(=O)c3ccc(C(F)(F)F)cc3)C3CC3)c(N3CCC(O)CC3)nc12 -24.4%
COc1cccc(Nc2ncc3nc(C)c(=O)n(Cc4cccs4)c3n2)c1 35.4%
COc1cc(CNc2nc(C)c(-c3ccn(C4Cc5ccccc5C4)n3)s2)cc2c1OCO2 -6.59%
CSc1nnc(CNC(=O)c2cccc3ccccc23)n1-c1ccccc1C -3.89%
Cc1ccc(C(=O)N(Cc2cc3cc4c(cc3nc2N2CCOCC2)CCC4)CC2CCCO2)s1 (configuration not stated) -15.6%
O=C1CCCC2[C@@H]3CCC[N@+]4([O-])CCC[C@H](CN12)C34 (some centres not stated) 19.8%
C[N+]1(C)CCN(CC(O)(c2ccccc2)C2CCCCC2)CC1 (configuration not stated) 1.98%
COc1cc(=O)n2c(c1C(=O)NC(C)c1ccco1)CCN(C(=O)c1cc(C)cc(C)c1)CC2 (configuration not stated) -3.94%
FC(F)(F)c1ccccc1-c1cncnc1NCc1ccccc1 6.24%
COc1cc(O)c(C(=O)c2ccccc2)cc1O -2.11%
CCn1cc(CN2Cc3ccccc3OC(c3ccccc3OC)C2)c(C)n1 (configuration not stated) -5.33%
COc1ccc2[nH]cc(CCNc3ncnc4ccc(-c5c(C)noc5C)cc34)c2c1 -7.06%
O.O=C([O-])CC([S-])C(=O)[O-].[Au+].[Na+].[Na+] (configuration not stated) 31.1%
Cn1c(=O)c(-c2ccccc2)nc2cnc(Oc3ccccc3)nc21 3.53%
COc1ccc(CN2CCC3(CCC(CNC(=O)C4CCCO4)O3)CC2)c(C)c1C (configuration not stated) 7.49%
Cc1noc(C)c1C(=O)N1CCC2(CCCN(C(c3ccccc3)c3ccccc3)C2)CC1 -17.5%
O=C(O)CCc1cc(I)c(O)c(I)c1 24.3%
Cc1ccc(C(C)C)c(O)c1 12.2%
COCc1ccc(CN2CCOc3c(O)cc(-c4cc(C)c5ccc(F)cc5n4)cc3C2)o1 -9.59%
CC/C=C\C/C=C\C/C=C\CCCCCCCC(=O)O
COc1c2c(cc3c1C(CC(O)C(C)C)N(C)CC3)OCO2 (configuration not stated) 22.4%
CC(=O)O[C@]1(C(C)=O)CC[C@H]2[C@@H]3C=C(C)C4=CC(=O)CC[C@]4(C)[C@H]3CC[C@@]21C 11.6% [at 75.8 µM]
C=C1[C@H](CO)[C@@H](O)C[C@@H]1n1cnc2c(=O)[nH]c(N)nc21 10.5%
CN(C)c1ncc2nc(-c3ccc(F)cc3)c(=O)n(Cc3cccs3)c2n1 3.15%
CCNC(=O)NCc1cccc(Cl)c1 4.76%
NC[C@H]1O[C@H](O[C@H]2[C@H](O)[C@@H](O[C@H]3O[C@H](CO)[C@@H](O)[C@H](N)[C@H]3O)[C@H](N)C[C@@H]2N)[C@H](N)[C@@H](O)[C@@H]1O
CS(=O)(=O)N1CCC2(CCCN(c3cccc(-c4ccccc4)c3)C2)CC1 -2.81%
CC/C=C(\C(=O)N[C@@H]1C(=O)N2C(C(=O)OCOC(=O)C(C)(C)C)=C(COC(N)=O)CS[C@H]12)c1csc(N)n1
COc1cccc2ccc(CN3CCC4(CC3)c3ccccc3[C@@H](NC(=O)c3ccccc3)[C@@H]4O)nc12 8.45%
C=CC(C)(O)CCC=C(C)C (configuration not stated) 6.67%
Cc1ccccc1 2.34%
Cc1cccc(C)c1NC(=O)CN1CCN(CCCC(c2ccc(F)cc2)c2ccc(F)cc2)CC1 0.0143% [at 75.8 µM]
Cc1cccc(C2CN(C)CCc3c2cc(O)c(O)c3Cl)c1 (configuration not stated) 14.2% [at 75.8 µM]
COc1ccc(C(=O)N2CCC3(CCCN(c4ccc(-c5ccccc5)cc4)C3)CC2)cc1 -0.713%
Cc1c(C)c2c(c(C)c1O)CCC(C)(CCCC(C)CCCC(C)CCCC(C)C)O2 (configuration not stated) -7.36%
CS(=O)(=O)Nc1cccc(-c2ccc3ncnc(N4CCNCC4)c3c2)c1 10.8%
COc1cc(C)c(Cc2cnc(N)nc2N)cc1OC -9.71%
COC(=O)N1CCC2(CCN(C(=O)Nc3cccc(C#N)c3)CC2)CC1 15.5%
CC(C)NC(=O)N1CC[C@@]2(CCCN(C(=O)c3cc(C(F)(F)F)cc(C(F)(F)F)c3)C2)C1 -6.21%
CC(=O)N1CCC[C@@]2(CCN(C(c3ccccc3)c3ccccc3)C2)C1 -7.28%
C[C@@H](C[C@H](N)C(=O)O)C(=O)O -10.1%
CC(C)(S)[C@H](N)C(=O)O -3.38%
O=C(C[C@H]1C(=O)N(Cc2ccccc2)C[C@@H]1Cc1ccccc1)Nc1ccccc1 -4.34%
Clc1cc(Cl)c(OCC#CI)cc1Cl 5.93%
O=C(O)/C=C(\CC(=O)O)C(=O)O
COc1cccc(Nc2ncc3nc(C)c(=O)n(CCC#N)c3n2)c1 -6.96%
Oc1cc(O)cc(/C=C/c2ccc(O)c(O)c2)c1
COc1ccc(-n2c(=O)cnc3cnc(Nc4ccccc4)nc32)cc1 12.5%
Cc1c(CN2CCOc3ccc(C(C)(O)COc4ccccc4)cc3C2)cnn1C (configuration not stated) 12.1%
CCCCN1CC[C@H]2C=CC[C@@H](C(=O)NC3CCCCC3)[C@H]2C1=O -3.12%
CC1CCCC(C)N1NC(=O)c1ccc(Cl)c(S(N)(=O)=O)c1 (configuration not stated)
O=C(c1cccc(F)c1)N1CCC2(CCCN(Cc3ccncc3)C2)CC1 19%
O=c1cnc2cnc(N3CCNCC3)nc2n1CCc1ccccc1 18.9%
Cc1noc(C)c1C(=O)N1CCC2(CCCN(C(=O)NC(C)C)C2)CC1 14.4%
COc1cccc(-n2c(SC)nnc2C2CCN(Cc3cccc(OC)c3O)CC2)c1 15.9%
Cc1cccc(CNc2nc(-c3ccc(C(=O)N(C)C)cc3)nc3ccccc23)c1 6.51%
Nc1nnc(-c2cccc(Cl)c2Cl)c(N)n1
CN1CCc2cc3c(cc2[C@@H]1[C@@H]1C(=O)Oc2c1ccc1c2OCO1)OCO3 -0.347%
Cc1nc2ccccc2nc1/C=C/c1ccc(N(C)C)cc1 -14.8%
O=c1c(-c2cc(F)cc(F)c2)nc2cnc(N3CCNCC3)nc2n1Cc1ccc(F)cc1 -25.2%
O=c1c(-c2cccc(Cl)c2)nc2cncnc2n1Cc1ccccc1Cl -6.25%
CCc1noc(C)c1C(=O)N1CCOc2ccc(CN3CCN(c4ccccn4)CC3)cc2C1 1.03%
O=C(Nc1cccc(N2CCC(NCc3cnn(-c4cccc(F)c4)c3)CC2)c1)c1ccncc1 18.7%
C[N+]1(CC2COC(c3ccccc3)(C3CCCCC3)O2)CCCCC1 (configuration not stated) 12.5%
Cc1c(C(=O)N(C)CC2CCCN(C)C2)cnn1-c1nccc(-c2ccco2)n1 (configuration not stated) 10.4%
CC[C@]12CCCN3CCc4c(n(c5ccccc45)[C@@](O)(C(=O)OC)C1)[C@@H]32 11.2%
c1ccc2c(N3CCOCC3)nc(-c3ccoc3)nc2c1 8.27%
COCC(=O)Nc1cc(C(=O)N2CCc3sccc3C2)c2c(c1)nc(-c1ccncc1)n2C 17.4%
COC(=O)[C@@H]1CCCN1Cc1ccc2c(c1)CN(Cc1ccc3c(c1)CCCN3C)CCO2 -12.9%
CSc1ccc(/C=C2/C(C)=C(CC(=O)O)c3cc(F)ccc32)cc1 4.23%
Cc1cccc(CNC(=O)c2cnn(-c3nccc(-c4cc(C)sc4C)n3)c2C)n1 7.63%
COc1cccc(C(=O)N2CCCC(c3nc(SCCN4CCOCC4)ncc3C)C2)c1 (configuration not stated) 5.54%
C=C[C@]1(C)C[C@@H](OC(=O)CSCCN(CC)CC)[C@]2(C)[C@H](C)CC[C@]3(CCC(=O)[C@H]32)[C@@H](C)[C@@H]1O 4.61%
COc1ccc(C(=O)N2CCC3(CCCN(c4cccc(-c5ccccc5)c4)C3)CC2)cc1 11.3%
CC(C)N(CCC(=O)c1ccc2ccccc2c1)Cc1ccccc1
CCOC(=O)c1ccc(C#Cc2ccc3c(c2)C(C)(C)CCS3)nc1 17.7%
CC(c1ccon1)N(C)C(=O)c1cnn(-c2ncc3c(n2)-c2ccccc2CC3)c1C1CC1 (configuration not stated) -13.8%
